# Test results published in PubChem BioAssay AID886 (National Center for Advancing Translational Sciences (NCATS), 2007).
# The campaign covered roughly 73,000 compounds. About 2,500 (3.4%) were called active. The shares of active, inactive and inconclusive entries below differ from those in the screen. Calls follow the shape of the dose curve; as a rule, active = well fitted inhibition curve with a large enough effect; inconclusive = small, poorly fitted or top-dose-only effect; inactive = no such curve, though single readings can be large or run the other way. Potencies of inconclusive entries are doubtful fits and often do not repeat.
# Target: 3-hydroxyacyl-CoA dehydrogenase type-2 (Homo sapiens) (UniProt Q99714)
# Test: qHTS Assay for Inhibitors of HADH2 (Hydroxyacyl-Coenzyme A Dehydrogenase, Type II); also: nearly all actives have a fitted effect of over 60% in size
# Settings: recombinant HADH2, NADH fluorescence, beta-hydroxybutyryl-CoA; activity change, negative = inhibition: at 57.1 µM (top of the series)
# Summary of the method: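 Read-out: 360 nm excitation, 450 nm emission, kinetic over 4 min. Conditions: His-tagged human HADH2 20 nM, pH 9.0 Tris with Tween-20, 1 mM NAD+, 90 uM beta-hydroxybutyryl-CoA.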
# % is scaled to controls: 0 for no effect and ±100 for the full control effect; potency is read from the fitted curve at half-maximal effect; tags tell the direction and shape of the fitted curve.
# Chain of UniProt Q99714 (Q99714 whole entry, looked up): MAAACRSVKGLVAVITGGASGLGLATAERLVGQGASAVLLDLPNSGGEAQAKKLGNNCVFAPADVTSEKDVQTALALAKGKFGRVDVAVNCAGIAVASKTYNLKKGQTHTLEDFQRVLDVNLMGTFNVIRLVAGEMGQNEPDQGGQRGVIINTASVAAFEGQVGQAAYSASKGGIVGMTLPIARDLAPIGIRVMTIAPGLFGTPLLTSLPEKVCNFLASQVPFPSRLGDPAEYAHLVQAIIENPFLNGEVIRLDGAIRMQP
# Chain of UniProt Q99714 (Q99714 whole entry, looked up): as above
Structure (SMILES),"activity change, negative = inhibition",Potency
N=c1sc2ccccc2n1CCS (tested in a mixture with another compound),inactive: -9.44% [at 11.4 µM],
CCN1CCN(c2c(Cl)cccc2NC(=O)c2ccco2)CC1,,"inconclusive: 25.1 µM [inhibitor, single point]"
COCCn1c(=O)c(-c2ccc(Cl)cc2)nc2cnc(OC)nc21,,"inconclusive: 10 µM [inhibitor, partial curve]"
CCOC(=O)c1sc(N)c(C(=O)Nc2ccc(C)cc2C)c1C,,active: 0.1 µM
O=c1c2ccccc2nnn1CSc1ccc2c(c1)OCCO2,,"inconclusive: 25.1 µM [inhibitor, single point]"
CCC1CCCCN1C(=O)Cn1c(C(=O)OC)cc2ccsc21 (stereo not drawn),inactive: 4.56%,
CC(C)C(=O)Nc1nnc(SCC(=O)NC2CC2)s1,,"inconclusive: 39.8 µM [inhibitor, single point]"
Cc1nc2sc(C(c3cccs3)N3CCN(C(=O)c4ccco4)CC3)c(O)n2n1 (stereo not drawn),,"inconclusive: 39.8 µM [inhibitor, single point]"
CSc1ccc2nnc(-c3cccc(F)c3)n2n1,,"inconclusive: 31.6 µM [inhibitor, single point]"
CC(C)n1c(CCCO)nc2ccccc21,inactive: -3.75% [at 11.4 µM],
c1c2c(cc3sc(N4CCCCC4)nc13)OCO2,,"inconclusive: 31.6 µM [inhibitor, partial curve]"
CC(=O)C(C)Oc1ccc2c3c(c(=O)oc2c1)CCCCC3 (stereo not drawn),,active: 20 µM
CCC(C)(C)OC,inactive: -4.07%,
C[C@H]1O[C@@H](CC(=O)O)Cc2c1c(O)c1c(O)cc(-c3cc(=O)c4c(=O)c5c(c(=O)c=4c3=O)C[C@H](CC(=O)O)O[C@@H]5C)c(O)c1c2O,,"inconclusive: 7.94 µM [inhibitor, single point]"
O=C(CC1(O)C(=O)Nc2ccccc21)c1ccccc1 (stereo not drawn),inactive: 4.5%,
CCOC(=O)CSc1nn(C)c(=S)s1,,active: 25.1 µM
N#Cc1cc2c([nH]c1=S)CCCCCC2,,active: 3.16 µM
Cc1ccc(C(=O)NC(C)(COc2nonc2C)COc2nonc2C)cc1,inactive: 17.8%,
COC(=O)c1cc(OC)c(OC)cc1NC(=O)C1CCCO1 (stereo not drawn),,"inconclusive: 25.1 µM [inhibitor, single point]"
O=C(O)C1=CC(=C(c2ccc(O)c(C(=O)O)c2)c2ccc(O)c(C(=O)O)c2)C=CC1=O,,active: 1.26 µM
COCCn1c(=O)cnc2cnc(N3CCNCC3)nc21,,"inconclusive: 25.1 µM [inhibitor, single point]"
Cn1c(CNc2nc(-c3ccccc3)cs2)nnc1SCC(=O)OC1CCCCC1,,"inconclusive: 25.1 µM [inhibitor, single point]"
Oc1cccc(/C=N/c2c(-c3ccco3)nc3ccccn23)c1,,"inconclusive: 3.98 µM [inhibitor, full curve]"
COc1ccc(Nc2nc(-c3sc(N)nc3C)cs2)cc1,,"inconclusive: 10 µM [inhibitor, partial curve]"
O=C(O)CCc1ccc(-c2cccs2)n1Cc1ccco1,,"inconclusive: 31.6 µM [inhibitor, single point]"

Structure (SMILES),"activity change, negative = inhibition",Potency
N[C@@H](Cc1ccccc1)c1nnc(SCc2ccccc2Cl)o1,,"inconclusive: 39.8 µM [inhibitor, single point]"
O=C1c2ccccc2C(Nc2ccc3c(c2)OCO3)N1Cc1ccco1 (stereo not drawn),,"inconclusive: 31.6 µM [inhibitor, single point]"
O=c1cc(-c2ccccc2)oc2ccccc12,inactive: -9.21%,
CCCCCCSC1=C(C#N)C(c2ccc(C)o2)CC(=O)N1 (stereo not drawn),,"inconclusive: 39.8 µM [inhibitor, single point]"
COc1ccc(-c2nnc(Nc3nc4c(OC)cccc4s3)o2)cc1,,"inconclusive: 31.6 µM [inhibitor, single point]"
COc1ccc(-c2c3c(nc4sc(C(=O)Nc5cc(C)on5)c(N)c24)CCC3)cc1,,"inconclusive: 25.1 µM [inhibitor, partial curve]"
N=c1n(CCO)c2ccccc2n1CCOc1ccc(Cl)cc1Cl,inactive: 0.716%,
N#Cc1nc(-c2cccs2)oc1NCc1ccco1,,"inconclusive: 31.6 µM [inhibitor, single point]"
Cc1ccc2[nH]c(=O)c(C(c3nnnn3CC3CCCO3)N3CCOCC3)cc2c1 (stereo not drawn),,"inconclusive: 39.8 µM [inhibitor, single point]"
CCOC(=O)C1CCN(C(=O)COc2ccc(S(=O)(=O)NC(C)C)cc2)CC1,,"inconclusive: 6.31 µM [inhibitor, single point]"
COc1ccc(CCN2CC(O)=C(c3nc4ccccc4c(=O)[nH]3)C2=N)cc1OC,,"inconclusive: 39.8 µM [inhibitor, single point]"
CC(C)C1Cc2[nH]c(=O)c(C(=O)O)cc2CO1 (stereo not drawn),,"inconclusive: 15.8 µM [inhibitor, partial curve]"
CCOc1cc(S(=O)(=O)NCc2ccccc2)ccc1F,inactive: 18.1%,
COC(=O)c1[nH]c2ccc(C)cc2c1NC(=O)C(C)N1CCN(C2CCCCC2)CC1 (stereo not drawn),,"inconclusive: 39.8 µM [inhibitor, single point]"
Cc1cc(C)n2nc(SCc3cc(=O)n4ccccc4n3)nc2n1,,"inconclusive: 31.6 µM [inhibitor, single point]"
O=C(NCc1ccco1)c1nc2nc(-c3cccs3)cc(C(F)(F)F)n2n1,,active: 25.1 µM
CCC1S/C(=C(\C#N)C(=O)NCc2ccco2)N(c2ccc(Br)cc2)C1=O (stereo not drawn),,"inconclusive: 20 µM [inhibitor, partial curve]"
COc1ccc(Cn2c(C)nc3c(c2=O)c2nc4ccccc4nc2n3Cc2ccco2)cc1,,active: 25.1 µM
COCCN1CSC(=S)N(Cc2ccco2)C1,,"inconclusive: 31.6 µM [inhibitor, single point]"
COc1ccc(N(CC(=O)Nc2cc(C)ccc2C)S(=O)(=O)c2c(C)nn(C)c2C)cc1,inactive: -4.9%,
CC(C)(C)OC(=O)N1CCCC1C(=O)NCCc1ccccc1 (stereo not drawn),inactive: 2.43%,
CC(=O)OCCNC(=O)c1cc2ccccc2oc1=O,,"inconclusive: 25.1 µM [inhibitor, single point]"
O=C(O)C1CC=CCC1C(=O)Nc1cccc(F)c1 (stereo not drawn),inactive: -7.87%,
CC(=O)c1ccc(N2CCN(C(=O)c3ccc4c(=O)n(-c5ccccc5)c(=O)[nH]c4c3)CC2)cc1,inactive: -23.4%,
Nc1nc2c(cnn2CCc2ccccc2)c2nc(-c3ccco3)nn12,inactive: 4.47%,

Structure (SMILES),"activity change, negative = inhibition",Potency
COc1ccc(Br)cc1C1CC(=O)N2CN(Cc3ccccc3)CSC2=C1C#N (stereo not drawn),,active: 2 µM
CCN(CC)C(=O)c1cc2c(=O)n3cccc(C)c3nc2n1C,,active: 31.6 µM
COc1ccccc1-c1cc(C(=O)NCc2ccc(Cl)cc2)no1,,"inconclusive: 39.8 µM [inhibitor, single point]"
CCOC(=O)N1CCc2c(sc(NC(=O)c3ccc(Cl)s3)c2C(N)=O)C1,,"inconclusive: 12.6 µM [inhibitor, partial curve]"
COC(=O)N1CCC2(CCN(Cc3ccc(C#N)cc3)CC2)CC1,,"inconclusive: 7.94 µM [inhibitor, single point]"
CN(C)c1ccc(-c2noc(-c3ccccc3O)n2)cc1,,active: 25.1 µM
O=C(Nn1c(-c2ccccc2)nc2ccccc2c1=O)c1ccco1,,"inconclusive: 25.1 µM [inhibitor, single point]"
CC(=O)Nc1ccc(S(=O)(=O)Nc2nc(C)cc(-n3nc(C)cc3C)n2)cc1,inactive: -5.76% [at 11.4 µM],
COc1ccccc1NC(=O)CSc1ccc2nnc(-c3ccccn3)n2n1,,"inconclusive: 10 µM [inhibitor, partial curve]"
CCCCCCc1c(O)c2ccccc2[nH]c1=O,,"inconclusive: 15.8 µM [inhibitor, partial curve]"
CCn1nnc(NC(=O)c2cccnc2)n1,,"inconclusive: 31.6 µM [inhibitor, single point]"
CCCn1c(-c2ccc(F)cc2)nc2c(NCCCN(C)C)nc(C)nc21,,"inconclusive: 39.8 µM [inhibitor, single point]"
C1=Nc2c(NCc3ccccc3)ncnc2Oc2ccccc21,,"inconclusive: 5.01 µM [inhibitor, single point]"
Cc1nc2oc(C(=O)c3ccccc3)c(N)c2c2c1COC(C)(C)C2,inactive: 2.88%,
Cc1[nH]n(C(N)=S)c(=O)c1C(c1ccccc1)C(C#N)C#N (stereo not drawn),,"inconclusive: 7.94 µM [inhibitor, full curve, poor fit]"
O=C(CSc1nnc(-c2ccc(Cl)s2)o1)N1CCc2ccccc21,,"inconclusive: 3.16 µM [inhibitor, single point]"
C(=N\n1cnnc1)/c1cccc2ccccc12,,"inconclusive: 31.6 µM [inhibitor, single point]"
COc1ccc(OCC(=O)OCCN2C(=O)c3ccccc3C2=O)cc1,,"inconclusive: 31.6 µM [inhibitor, single point]"
CC1(C(=O)O)Sc2[nH]c(=O)sc2C2c3ccccc3OC(=O)C21 (stereo not drawn),,"inconclusive: 7.94 µM [inhibitor, full curve]"
Cc1cccc(N=c2oc3cc(O)ccc3cc2C(N)=O)c1,,"inconclusive: 31.6 µM [inhibitor, single point]"
CCc1nnc(NC(=O)C(NS(=O)(=O)c2ccc3c(c2)OCCO3)C(C)C)s1 (stereo not drawn),,"inconclusive: 25.1 µM [inhibitor, single point]"
Cc1noc(C)c1-c1nc(NCc2cccs2)c2ccccc2n1,,active: 25.1 µM
O=C(Nc1cccc(NC(=O)c2ccc(Br)o2)n1)c1ccc(Br)o1,,"inconclusive: 25.1 µM [inhibitor, partial curve]"
